Experimental data taken from paper PMC6919601, “Identification of Plasmodium dipeptidyl aminopeptidase allosteric inhibitors by high throughput screening” (PLoS ONE, 2019).
The campaign covered roughly 110,000 compounds. About 230 (0.21%) showed an effect of 50% or more. The list shows a part of the results.
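Also: 30 min substrate incubation versus DMSO and 10 µM JCP410 controls.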

These molecules were tested against DPAP1 (Plasmodium falciparum, UniProt Q8IIJ9) (assay: primary screen, percent inhibition; read by cleavage of a fluorogenic dipeptide substrate; higher = more effect of the substance).
Chain of DPAP1 (Q8IIJ9 whole entry, looked up): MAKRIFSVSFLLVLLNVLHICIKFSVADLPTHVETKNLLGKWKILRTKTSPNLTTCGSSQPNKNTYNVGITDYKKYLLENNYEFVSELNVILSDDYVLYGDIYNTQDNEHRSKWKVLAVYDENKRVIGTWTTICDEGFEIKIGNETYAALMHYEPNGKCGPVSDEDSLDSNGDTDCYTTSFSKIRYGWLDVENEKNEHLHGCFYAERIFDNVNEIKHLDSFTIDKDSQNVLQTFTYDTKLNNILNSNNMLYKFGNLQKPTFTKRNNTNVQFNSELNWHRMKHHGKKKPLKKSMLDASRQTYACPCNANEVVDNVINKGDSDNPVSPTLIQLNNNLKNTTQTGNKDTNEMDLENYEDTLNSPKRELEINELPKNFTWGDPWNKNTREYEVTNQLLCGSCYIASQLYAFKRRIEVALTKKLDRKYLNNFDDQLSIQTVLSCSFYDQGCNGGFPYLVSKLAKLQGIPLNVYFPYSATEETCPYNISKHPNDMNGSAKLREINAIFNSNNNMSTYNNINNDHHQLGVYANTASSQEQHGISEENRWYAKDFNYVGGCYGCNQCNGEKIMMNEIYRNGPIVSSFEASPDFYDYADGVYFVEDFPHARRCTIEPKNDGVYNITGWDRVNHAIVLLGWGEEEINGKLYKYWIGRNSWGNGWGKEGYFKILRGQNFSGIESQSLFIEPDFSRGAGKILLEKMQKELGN
Set-up: species or system P. falciparum D10 trophozoite lysates; single well
In the case of `CC(C)c1ccc(NC(=O)c2cccc([N+](=O)[O-])c2)cc1`, the “% Inhibition @ 10 uM” value is reported as 5.08%.
With `CCN1CCN(C2CCN(CCc3ccccc3)CC2)CC1` the “% Inhibition @ 10 uM” value was 2.1%.
`CCOC(=O)c1ccc(S(=O)(=O)N2CCC(C(N)=O)(N3CCCCC3)CC2)cc1` was tested, and the “% Inhibition @ 10 uM” value was 1%.
For `CCc1ccc(-c2nc(CSCC(=O)NCc3ccccc3)c(C)o2)cc1`, the “% Inhibition @ 10 uM” value was 3.99%.
In the case of `COc1ccc(N(CC(=O)Nc2cc(C)cc(C)c2)S(C)(=O)=O)cc1OC`, the “% Inhibition @ 10 uM” value is reported as 3.66%.
For `COc1ccc(C2C(C(=O)c3ccc(C)cc3)=C(O)C(=O)N2C)cc1` (centres unmarked), the “% Inhibition @ 10 uM” value was -0.171%.
In the case of `Oc1ccc(Cl)cc1-c1cc(-c2ccccc2)[nH]n1`, the “% Inhibition @ 10 uM” value is reported as 3.15%.
For `COc1ccc(-c2cc(C(=O)Nc3ccc(C(=O)N4CCOCC4)cc3)c3cc(C)ccc3n2)cc1`, the “% Inhibition @ 10 uM” value was -7.09%.
With `CC(C)CCN(C)C1CCN(S(=O)(=O)c2ccc(C3CCCCC3)cc2)CC1` the “% Inhibition @ 10 uM” value was 3.66%.
`COCc1cc(C)nc(Cl)c1C#N` was tested, and the “% Inhibition @ 10 uM” value was -6.87%.
With `CCN(CC)C(=O)Cn1c(=O)cc(C)c2c(C)nn(-c3cccc(F)c3)c21` the “% Inhibition @ 10 uM” value was 3.99%.
In the case of `CCc1ccccc1NC(=O)c1ccc(OC)cc1OC`, the “% Inhibition @ 10 uM” value is reported as -2.44%.
In the case of `Cc1nn(C(C)C(=O)N2CCN(C(=O)c3ccco3)CC2)c(=O)c2c1sc1ccccc12` (centres unmarked), the “% Inhibition @ 10 uM” value is reported as -1.17%.
`Cc1nc(-n2cccc2)sc1C(=O)NC1CCN(Cc2ccccc2)CC1` was tested, and the “% Inhibition @ 10 uM” value was 1.03%.
In the case of `CCCOc1c(Br)cc(/C=C2\SC(=O)NC2=O)cc1OCC`, the “% Inhibition @ 10 uM” value is reported as 0.823%.
In the case of `CCN1CCN(C(=O)c2cn(CC(C)C)c(=O)c3c2c2ccccc2n3C)CC1`, the “% Inhibition @ 10 uM” value is reported as -5.09%.
In the case of `CCOc1cc(C2C(C#N)=C(N)OC3=C2C(=O)CC(C)(C)C3)ccc1OCC(=O)Nc1ccccc1` (centres unmarked), the “% Inhibition @ 10 uM” value is reported as 1.4%.
With `O=C(O)CCCc1cn(Cc2ccc(F)cc2)c2ccccc12` the “% Inhibition @ 10 uM” value was 4.79%.
With `CC(=O)c1ccc(N2C(=O)c3ccc(Oc4ccccc4)cc3C2=O)cc1` the “% Inhibition @ 10 uM” value was -2.09%.
With `COc1cc(OC)c(OC)cc1CN1CCN(C(=O)c2ccc(OC)c(OC)c2)CC1` the “% Inhibition @ 10 uM” value was 7.31%.
With `COc1ccc(C(O)(C(=O)O)c2ccc(OC)cc2)cc1` the “% Inhibition @ 10 uM” value was -9.41%.
In the case of `Cc1ccc(-n2ncc3c(N4CCC5(CC4)OCCO5)ncnc32)c(C)c1`, the “% Inhibition @ 10 uM” value is reported as -6.87%.
`CC1=C(C(=O)Nc2cccc(C)c2C)C(c2ccccc2F)NC(=O)N1` (centres unmarked) was tested, and the “% Inhibition @ 10 uM” value was -2.67%.
`Cc1ccnc(N2CCCC(C(=O)O)C2)n1` (centres unmarked) was tested, and the “% Inhibition @ 10 uM” value was -8.78%.
For `C=CCNS(=O)(=O)c1ccc(C)cc1`, the “% Inhibition @ 10 uM” value was 1.42%.
`CC(C)C[C@@H](NC(c1ccc(Br)cc1)C(F)(F)F)C(=O)NCC#N` (some centres unmarked) was tested, and the “% Inhibition @ 10 uM” value was -3.04%.
For `O=S(=O)(Nc1ccc(F)cc1)c1ccccc1`, the “% Inhibition @ 10 uM” value was -1.77%.
For `COc1ccc(C(=O)NCc2nc(-c3ccc(Cl)cc3)no2)cc1OC`, the “% Inhibition @ 10 uM” value was -6.72%.
For `Cc1cc(C)c(C)c(S(=O)(=O)Nc2ccc(C(=O)N3CCN(C)CC3)cc2)c1C`, the “% Inhibition @ 10 uM” value was -2.85%.
With `Cc1cc2cc(CNC(=S)NC(C)(C)C)ccc2n1C` the “% Inhibition @ 10 uM” value was 1.55%.
With `CO/C(O)=C1\C(C)=NC2=C(C(=O)CC(c3ccccc3)C2)C1c1cc2c(cc1Br)OCO2` (centres unmarked) the “% Inhibition @ 10 uM” value was -5.9%.
With `C=CCOc1ccc(C2C(C(=O)c3ccc(OC)cc3)=C(O)C(=O)N2CCCn2ccnc2)cc1` (centres unmarked) the “% Inhibition @ 10 uM” value was 2.17%.
`CCCCOc1ccc(C2(C)CC(=O)NC2=O)cc1` (centres unmarked) was tested, and the “% Inhibition @ 10 uM” value was 2.51%.
With `Nc1nc(Cl)nc(Nc2ccccc2OC(F)(F)C(F)Cl)n1` (centres unmarked) the “% Inhibition @ 10 uM” value was 3.06%.
`CCOC(=O)C1CN1C(CC)C(=O)OC` (centres unmarked) was tested, and the “% Inhibition @ 10 uM” value was -1.59%.
`CCc1nn(Cc2ccc(F)cc2)c(=O)c2cc3cc(C)ccc3n12` was tested, and the “% Inhibition @ 10 uM” value was 4.55%.
For `COc1ccc(Cl)cc1C(=O)NCCN1CCN(C(=O)c2cc(Cl)ccc2OC)CC1`, the “% Inhibition @ 10 uM” value was 2.03%.
For `O=C(O)CN1C(=O)c2ccc(Oc3ccc(Br)cc3)cc2C1=O`, the “% Inhibition @ 10 uM” value was -0.68%.
`O=S(=O)(c1ccc(-c2ccc(S(=O)(=O)N3CCCCC3)cc2)cc1)N1CCCCC1` was tested, and the “% Inhibition @ 10 uM” value was -5.41%.
For `CCC(NC(=O)C(Cc1c(F)cccc1F)NC(=O)c1ccc(Oc2ccccc2)cc1)C(=O)c1nc2ccccc2o1` (centres unmarked), the “% Inhibition @ 10 uM” value was 1.35%.
With `Cc1ccc(CNC(=O)C2CCCN(S(=O)(=O)c3ccc4[nH]c(-c5ccccc5)nc4c3)C2)cc1` (centres unmarked) the “% Inhibition @ 10 uM” value was -1.69%.
For `Cc1ccc(-n2nnc(C(N)=O)c2C)cc1F`, the “% Inhibition @ 10 uM” value was 1.68%.
`O=C(Nc1cccc(F)c1)c1cccc(Br)c1` was tested, and the “% Inhibition @ 10 uM” value was 1.48%.
`Cn1nnnc1SCC(=O)N1CCc2ccccc2C1` was tested, and the “% Inhibition @ 10 uM” value was -0.703%.
In the case of `CCC1CCCCN1Cc1nc2c(c(=O)n(C)c(=O)n2C)n1Cc1cc(C)ccc1C` (centres unmarked), the “% Inhibition @ 10 uM” value is reported as -0.499%.
For `O=C(NCc1ccncc1)Nc1cccc(F)c1`, the “% Inhibition @ 10 uM” value was 7.06%.
For `COc1cccc(-c2[nH]nc3c2C(c2cc(OC)cc(OC)c2)C(C#N)=C(N)O3)c1` (centres unmarked), the “% Inhibition @ 10 uM” value was -5.63%.
In the case of `COc1ccc(C(=O)/C=C/c2cccc(Cl)c2)c(OC)c1`, the “% Inhibition @ 10 uM” value is reported as -0.546%.
`COCc1cc(C)nc2sc(C(O)c3ccccc3)c(NC(=O)c3ccco3)c12` (centres unmarked) was tested, and the “% Inhibition @ 10 uM” value was 1.62%.
In the case of `CCn1cc(C(=O)Nc2cc(C(=O)O)ccc2C)c(C)n1`, the “% Inhibition @ 10 uM” value is reported as -0.171%.
In the case of `COc1ccc(S(=O)(=O)N2CCC(C(=O)Nc3cc(Cl)c(Cl)cc3Cl)CC2)cc1`, the “% Inhibition @ 10 uM” value is reported as -3.45%.
`Cc1[nH]c2ccccc2c1CCNC(=O)NC(=O)c1c(F)cccc1F` was tested, and the “% Inhibition @ 10 uM” value was 0.83%.
`CCOc1ccc(NC(=O)COc2ccc(CC)cc2)cc1` was tested, and the “% Inhibition @ 10 uM” value was -5.1%.
For `N#Cc1cc2c(N)c(C(=O)Nc3ccc(OC(F)(F)F)cc3)sc2nc1N`, the “% Inhibition @ 10 uM” value was 12.4%.
For `COc1ccc(OC)c(N(CC(=O)Nc2ccc(Br)cc2)S(C)(=O)=O)c1`, the “% Inhibition @ 10 uM” value was 3.17%.
With `O=C(C1CCN(c2nnc(N3CCCC3=O)s2)CC1)N1CCC(Cc2ccccc2)CC1` the “% Inhibition @ 10 uM” value was 3.87%.
`Cc1c(CC(=O)N2CCCC2)c(=O)oc2cc(O)ccc12` was tested, and the “% Inhibition @ 10 uM” value was -0.808%.
With `CCn1c(-c2ccc(OC)c(OC)c2)nc2ccccc21` the “% Inhibition @ 10 uM” value was -2.5%.
`Brc1cccc(CN2CCN(Cc3ccncc3)CC2)c1` was tested, and the “% Inhibition @ 10 uM” value was 3.65%.
With `CC1CCN(c2c(NCC3CCC(C(=O)N4CCOCC4)CC3)c(=O)c2=O)CC1` (centres unmarked) the “% Inhibition @ 10 uM” value was -3.96%.
With `COc1cc(/C=C/C(=O)Nc2nc3ccc(S(C)(=O)=O)cc3s2)ccc1OCc1ccccc1` the “% Inhibition @ 10 uM” value was -3.28%.
For `Cc1cccc(NC(=O)C2CCCN(c3ncnc4onc(-c5ccc(F)cc5)c34)C2)n1` (centres unmarked), the “% Inhibition @ 10 uM” value was 1.92%.
